According to the BET-seq Pho4 binding data (Le et al. 2018):
Some of the results follow. These are noisy estimates, calculated here from bound and input reads.

Each sequence was assayed against T1, Pho4 (S. cerevisiae) (UniProt P07270) (assay: relative binding free energy (BET-seq); higher = weaker binding). Conditions: reference: library average.
T1 sequence: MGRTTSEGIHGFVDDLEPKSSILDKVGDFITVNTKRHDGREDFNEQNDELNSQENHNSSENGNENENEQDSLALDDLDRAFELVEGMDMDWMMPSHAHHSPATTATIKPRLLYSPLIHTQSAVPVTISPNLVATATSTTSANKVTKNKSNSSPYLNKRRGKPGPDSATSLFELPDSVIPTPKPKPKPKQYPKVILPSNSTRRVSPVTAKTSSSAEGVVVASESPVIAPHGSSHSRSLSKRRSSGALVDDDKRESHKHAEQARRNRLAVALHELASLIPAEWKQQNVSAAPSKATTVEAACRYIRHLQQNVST

Sequence	relative binding free energy
CTGTACACGTGTTGTG	0.09 kcal/mol
TCATTCACGTGTAAGT	0.32 kcal/mol
GGTTCCACGTGTATGT	0.05 kcal/mol
TCGTTCACGTGGGAGG	0.15 kcal/mol
AATCTCACGTGGTTTT	0.27 kcal/mol
GGGATCACGTGGTGTA	0.2 kcal/mol
TTTTACACGTGTAGCG	0.15 kcal/mol
GGATTCACGTGATTGA	0.29 kcal/mol
TAATTCACGTGGAGTG	0.18 kcal/mol
TGGGGCACGTGCTGGC	-0.17 kcal/mol
TGTCTCACGTGGCATG	0.13 kcal/mol
TCCGGCACGTGGGGAT	-0.13 kcal/mol
TCGGGCACGTGATGTA	0 kcal/mol
TTAGTCACGTGTTTAG	0.08 kcal/mol
AATTTCACGTGTTGAA	0.26 kcal/mol
TTGTTCACGTGTGAAT	0.43 kcal/mol
GGTATCACGTGGGGAT	0.07 kcal/mol
TTTAGCACGTGGTGTT	-0.12 kcal/mol
GGTGTCACGTGGTTGG	0.11 kcal/mol
TTGGTCACGTGACGCG	0.15 kcal/mol
GTGTTCACGTGATGCC	0.44 kcal/mol
GTTGTCACGTGGAGGG	0.1 kcal/mol
TTATCCACGTGGAAGG	0.15 kcal/mol
GTCGGCACGTGAGCGG	0.11 kcal/mol
GCATTCACGTGGCGTG	0.29 kcal/mol

Sequence	relative binding free energy
TATGGCACGTGTATGT	-0.09 kcal/mol
GGTGTCACGTGAAGAA	0.14 kcal/mol
CCGGTCACGTGTGGAT	0.17 kcal/mol
ATGATCACGTGGTGCA	-0.04 kcal/mol
GATGGCACGTGTGCGG	0.06 kcal/mol
TGCGACACGTGTTGGT	0.07 kcal/mol
ATTTACACGTGGAAGA	0.18 kcal/mol
GCGTTCACGTGGTTTC	0.36 kcal/mol
GAGTACACGTGGTGAA	0.11 kcal/mol
AATGACACGTGAAGTT	0.26 kcal/mol
CAGATCACGTGATGTG	0.22 kcal/mol
AAGTGCACGTGGGAAG	-0.06 kcal/mol
TTGCTCACGTGATATT	0.28 kcal/mol
GTGTGCACGTGGCGTG	-0.14 kcal/mol
ATGTTCACGTGGATCT	0.15 kcal/mol
ATTACCACGTGGTAAG	0.06 kcal/mol
ACGGGCACGTGATAGG	-0.05 kcal/mol
CGGGGCACGTGTGAGC	-0.09 kcal/mol
ATCTGCACGTGTTCGG	0.04 kcal/mol
ATGTCCACGTGGGTAT	-0.08 kcal/mol
ACTGTCACGTGCATGT	0.11 kcal/mol
ATGGGCACGTGGGAAT	-0.09 kcal/mol
TTGAACACGTGTGTAA	0.03 kcal/mol
GGCCGCACGTGGTGAG	-0.09 kcal/mol
CCTGTCACGTGAGGGG	0.18 kcal/mol

Sequence	relative binding free energy
AATAACACGTGTTGGG	-0.06 kcal/mol
CTAGGCACGTGGTCGG	-0.28 kcal/mol
ACGGGCACGTGTGGTG	-0.21 kcal/mol
CGAGTCACGTGTAAGT	0.31 kcal/mol
TTCTTCACGTGCAGGG	0.29 kcal/mol
TTCTTCACGTGTGGAA	0.34 kcal/mol
TCTGTCACGTGAATGG	0.35 kcal/mol
TATTTCACGTGGCGTC	0.26 kcal/mol
TGTCACACGTGTGGGG	0.03 kcal/mol
ATATGCACGTGCTGGT	-0.16 kcal/mol
AGTTTCACGTGTTGGA	0.36 kcal/mol
GGATACACGTGGATTG	-0.03 kcal/mol
TACTTCACGTGTGGGC	0.26 kcal/mol
AGTGCCACGTGATTTT	0.2 kcal/mol
TGTCTCACGTGATAGG	0.14 kcal/mol
GTCGACACGTGGTTTT	0.1 kcal/mol
TAGTTCACGTGTTATT	0.19 kcal/mol
AGCGGCACGTGAGTGC	0.19 kcal/mol
AGGGTCACGTGACGAT	0.24 kcal/mol
GGGGACACGTGTTTGC	0.06 kcal/mol
TGTGTCACGTGGGCAG	-0.13 kcal/mol
GTGTACACGTGTGCGG	0.08 kcal/mol
AGTTGCACGTGGAGAG	0.04 kcal/mol
ACAGGCACGTGTTTTT	-0.08 kcal/mol
TGGCGCACGTGCGCGG	-0.37 kcal/mol

Sequence	relative binding free energy
GGTCTCACGTGGGATA	0.23 kcal/mol
TTGGACACGTGGTATA	0.02 kcal/mol
GTTTTCACGTGTAAGC	0.33 kcal/mol
ATATTCACGTGGTTTC	0.04 kcal/mol
GGGCTCACGTGACGGT	0.33 kcal/mol
AGATTCACGTGCTTTG	0.37 kcal/mol
GCGGGCACGTGTCTGT	-0.1 kcal/mol
GCTGTCACGTGGTTGA	0.17 kcal/mol
GGAGTCACGTGTTTTC	0.21 kcal/mol
ATGCTCACGTGTGAGT	0.07 kcal/mol
TTTGGCACGTGCTGAG	-0.05 kcal/mol
AGTACCACGTGGTTAG	-0.17 kcal/mol
TTAGCCACGTGTGCGG	-0.15 kcal/mol
ATACTCACGTGATAGT	0.35 kcal/mol
CGGGTCACGTGGTGGG	0.12 kcal/mol
GTGTCCACGTGCAGGG	0 kcal/mol
GCTTGCACGTGTGAGC	0.29 kcal/mol
GAATACACGTGAGTGG	0.39 kcal/mol
GGTATCACGTGTCGTA	0.2 kcal/mol
AGTTGCACGTGCGGTA	-0.1 kcal/mol
GCTGCCACGTGGGTGG	-0.13 kcal/mol
ATATACACGTGTGCTG	-0.07 kcal/mol
GTGCTCACGTGTTGGA	0.23 kcal/mol
AGTAGCACGTGTGGCG	-0.02 kcal/mol
GGGTACACGTGTCGGG	0.17 kcal/mol

Sequence	relative binding free energy
GTTGGCACGTGGTCAG	-0.24 kcal/mol
GGTTTCACGTGTGATC	0.33 kcal/mol
TTGTTCACGTGTGGGG	0.35 kcal/mol
GTAGGCACGTGAGCGG	0.17 kcal/mol
TTGTGCACGTGAAGTA	0.28 kcal/mol
GGAGTCACGTGTTTCG	0.02 kcal/mol
GGGGGCACGTGAGACA	0.16 kcal/mol
GTAGTCACGTGTGTGA	0.05 kcal/mol
AGGGCCACGTGGTGTA	-0.17 kcal/mol
GCTTTCACGTGAGTGG	0.33 kcal/mol
TAAGGCACGTGCGTAT	-0.24 kcal/mol
GTCGTCACGTGTTCGG	0.19 kcal/mol
GTCAACACGTGGGGGA	-0.13 kcal/mol
GCCGGCACGTGCGGTG	-0.12 kcal/mol
ATGGGCACGTGCCTTG	-0.15 kcal/mol
TCTTGCACGTGGAAAT	0.2 kcal/mol
TTATGCACGTGGTTAG	-0.1 kcal/mol
TTAGGCACGTGACGTT	-0.08 kcal/mol
GTGTTCACGTGGTGCG	0.29 kcal/mol
ATTGGCACGTGACGTG	-0.08 kcal/mol
TGTACCACGTGGGGTC	-0.24 kcal/mol
ACGTGCACGTGGTAAG	-0.11 kcal/mol
ACTTGCACGTGAAAGT	0.24 kcal/mol
GGTGTCACGTGATAGC	0.19 kcal/mol
TGACGCACGTGCATGG	-0.07 kcal/mol

Sequence	relative binding free energy
TGAATCACGTGATGCT	0.22 kcal/mol
TTGTACACGTGAGGAT	0.21 kcal/mol
ATAGGCACGTGAAGTG	0.14 kcal/mol
GAAGTCACGTGTGCGC	0.33 kcal/mol
TGTTGCACGTGGCTAG	0 kcal/mol
TGGTGCACGTGGGGTT	-0.13 kcal/mol
ATGGGCACGTGATGTT	0.11 kcal/mol
GGGGGCACGTGAGAGC	0.11 kcal/mol
GGTTACACGTGATGTG	0.16 kcal/mol
GTAAGCACGTGGGTGT	-0.18 kcal/mol
GCGAGCACGTGTGGCG	-0.01 kcal/mol
TTGCGCACGTGGGTCT	-0.24 kcal/mol
TGGTCCACGTGTCTTT	0.03 kcal/mol
GGGATCACGTGATATG	0.32 kcal/mol
GTGGGCACGTGTCTGC	-0.1 kcal/mol
GGCGTCACGTGGGCGC	-0.08 kcal/mol
TTTAGCACGTGCGTCG	-0.18 kcal/mol
ATTGGCACGTGGGGAC	-0.26 kcal/mol
AGTGACACGTGGGGTA	-0.19 kcal/mol
GTGGTCACGTGGCGAG	0.11 kcal/mol
ACGGCCACGTGGGTGT	-0.27 kcal/mol
